# Results reported in PubChem BioAssay (NCATS).
# The inconclusive results got no clear call from the source; some entries with a clear call stand among them for comparison. For part of these data: Potencies beside an inconclusive call are fits to weak or partial responses and may not hold up. Calls of active or inactive are those of the source. Unless noted, calls follow the shape of the dose curve; as a rule, active = well fitted curve in the direction sought with a large enough effect; inconclusive = small, poorly fitted or top-dose-only effect, or another doubt; inactive = no such curve, though single readings can be large; an effect the other way counts as inactive or inconclusive.
# Tests used:
# [1] = target: Dual specificity protein kinase CLK4 (Homo sapiens) (UniProt Q9HAZ1); experiment: qHTS Assay for Inhibitors of CDC-like Kinase 4 (Kinase-Glo Assay) (AID 1770); also: nearly all actives have a fitted effect of over 65% in size; also: potency is read from the fitted curve at half-maximal effect; as to activity, negative = inhibition: % is scaled to controls: 0 for no effect and ±100 for the full control effect
# How it was run: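 Substrate mix (RS peptide 100 uM, ATP 1 uM) dispensed, compound pinned in, then Clk4 added to 25 nM final. Incubated 4.5 h at RT; Kinase-Glo reagent added, luminescence read after 5 min.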
# [2] = target: Ubiquitin carboxyl-terminal hydrolase 1 (Homo sapiens) (UniProt O94782); experiment: Inhibitors of USP1/UAF1: Pilot qHTS (AID 504865);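 also: rhodamine fluorescence freed from ubiquitin-rhodamine substrate followed over time; top concentration of the series differs between compounds; % is scaled to controls: 0 for no effect and ±100 for the full control effect; nearly all actives have a fitted effect of over 35% in size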
# How it was run: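 In 50mM HEPES pH 7.8 containing 0.5mM EDTA, 1mM TCEP, 0.1 mg/ml BSA and 0.01% Tween-20, 1nM USP1/UAF1 is exposed to compound for 15 min, then Ub-Rho (150nM final) is added and fluorescence is read over time.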
# [3] = qHTS Assay for Identification of Small Molecule Agonists for Hypoxia Response Element Signaling Pathway (AID 914; active = well fitted activation curve with a large enough effect in the signal ratio, with a control signal flat, not every such curve was filed as active; inconclusive = small, poorly fitted or top-dose-only effect, or effect the other way, or a change in a side signal; the % refers to the signal ratio; also: potency is read from the fitted curve at half-maximal effect; as to activation: top concentration of the series differs between compounds; % of control where 0% means no effect); details: ME-180 HRE-bla reporter, beta-lactamase ratio, CoCl2, 17 h; activation: active compounds read high
# How it was run: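 Positive modulation of EC50 CoCl2-induced hypoxia response element signaling is measured in ME-180 cells with a beta-lactamase reporter. Compounds are titrated, incubation runs 17 hours, and %Activity derives from the blue/green ratio.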
# [4] = NFAT Signaling Pathway (AID 444; active = well fitted curve in either direction with a large enough effect, not every such curve was filed as active; inconclusive = small, poorly fitted or top-dose-only effect, or another doubt;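 also: carbachol stimulus at about its EC50 of 1 µM final; % is scaled to controls: 0 for no effect and ±100 for the full control effect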); details: Jurkat NFAT-bla M1, carbachol, beta-lactamase ratio, 5 h; at 17.2 µM (top of the series) unless noted
# How it was run: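 Read-out: CCF4 FRET ratio (460 nm/530 nm) after 1 h RT dye loading, used for %activity and AC50 from titration series. Cells: Jurkat NFAT-β-lactamase/M1 line, treated with compound plus 1 uM carbachol for 5 h, 37 °C.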
# [5] = target: 3',5'-cyclic-AMP phosphodiesterase 4B (Homo sapiens) (UniProt Q07343); experiment: qHTS Assay for Inhibitors of PDE-IV (AID 607; active = well fitted activation curve with a large enough effect in the main read-out, with a control signal flat, not every such curve was filed as active; inconclusive = small, poorly fitted or top-dose-only effect, or effect the other way, or a change in a side signal; also: potency is read from the fitted curve at half-maximal effect; as to activation (PDE inhibition): % of control where 0% means no effect); details: HEK293 ACTOne CNG channel cells, membrane potential fluorescence; activation (PDE inhibition): at 22.9 µM (top of the series)
# How it was run: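 ACTOne HEK293 cells carry a modified cAMP-gated CNG channel and express endogenous PDE4; plated 1000 cells/well, compounds up to 22.9 uM final. Membrane-potential dye fluorescence (ex 535/em 590) was read; parental cells received 10 uM forskolin + 100 uM RO 20-1724.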
# [6] = Stat Signaling Pathway (AID 446; active = well fitted curve in either direction with a large enough effect, not every such curve was filed as active; inconclusive = small, poorly fitted or top-dose-only effect, or another doubt;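 also: ME-180 cervical cancer cells given 40 pM IL-6 alongside compound; SIE-controlled beta-lactamase reporter measured as 460/530 nm FRET emission ratio; top concentration of the series differs between compounds; % is scaled to controls: 0 for no effect and ±100 for the full control effect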); details: ME-180 (cervical carcinoma) SIE beta-lactamase reporter, IL-6 stimulated, 5 h; at 7.69 µM (top of the series) unless noted
# How it was run: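 Compound effects on IL-6-induced STAT reporter activity were measured in ME-180 cells. After overnight culture, cells were co-treated with 40 pM IL-6 for 5 hrs before beta-lactamase substrate loading at room temperature.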
# [7] = target: Dual specificity protein kinase CLK4 (Homo sapiens) (UniProt Q9HAZ1); experiment: qHTS Assay for Inhibitors of CDC-like Kinase 4 (ADP-Glo Assay) (AID 1771); also: nearly all actives have a fitted effect of over 70% in size; also: potency is read from the fitted curve at half-maximal effect; as to activity change, negative = inhibition: % is scaled to controls: 0 for no effect and ±100 for the full control effect
# How it was run: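 ADP production was read by ADP-Glo luminescence after residual ATP depletion, following 1 h room-temperature reaction of 25 nM Clk4, 1 uM ATP and 100 uM RS peptide with MgCl2, EGTA, DTT and Triton X-100.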
# [8] = target: Mitogen-activated protein kinase 10 (Mus musculus) (UniProt Q61831); experiment: JNK3 AlphaScreen Assay (AID 530; active = well fitted curve in either direction with a large enough effect, not every such curve was filed as active; inconclusive = small, poorly fitted or top-dose-only effect, or another doubt;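 also: kinase came from lysate of stimulated human HepG2 cells; signal reports phosphorylation of biotinylated GST-cJun 1-79 at Ser73 with 10 µM ATP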; also: potency is read from the fitted curve at half-maximal effect); details: JNK3 lysate, c-Jun phosphorylation; activity change, negative = inhibition: at 57.1 µM (top of the series)
# How it was run: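 qHTS titrations with 15 min compound pre-incubation before adding ATP (10 uM final). Read-out: AlphaScreen of Ser73-phosphorylated biotin-GST-cJun using HepG2 lysate JNK3 activated by IL-1β and TNFα.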
# [9] = target: Cytochrome P450 2C9 (Homo sapiens) (UniProt P11712); experiment: qHTS Assay for Inhibitors and Substrates of Cytochrome P450 2C9 (AID 883); details: recombinant CYP2C9, luciferin-H luminescence, 60 min; activity change, negative = inhibition: at 57.1 µM (top of the series); also: potency is read from the fitted curve at half-maximal effect; nearly all actives have a fitted effect of over 60% in size
# How it was run: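 Turnover of Luciferin-H (100uM, KM) by 10nM human CYP2C9 was measured over 60 min at 37C with NADPH regeneration; inhibitors and some substrates reduce luminescence. Data normalized to sulphaphenazole 57uM.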
# [10] = target: Cytochrome P450 2C19 (Homo sapiens) (UniProt P33261); experiment: qHTS Assay for Inhibitors and Substrates of Cytochrome P450 2C19 (AID 899); also: potency is read from the fitted curve at half-maximal effect; nearly all actives have a fitted effect of over 60% in size
# How it was run: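 Reactions contain 5nM enzyme, 10uM Luciferin-H EGE (KM) and 50mM KPO4; compound preincubates 10 min at 37C, NADPH regeneration starts turnover for 60 min. Luminescence after detection reagent gives activity.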
# [11] = target: Cytochrome P450 3A4 (Homo sapiens) (UniProt P08684); experiment: qHTS Assay for Inhibitors and Substrates of Cytochrome P450 3A4 (AID 884); also: potency is read from the fitted curve at half-maximal effect; nearly all actives have a fitted effect of over 50% in size
# How it was run: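 Luminescent readout of luciferin produced by CYP3A4 (20 nM) dealkylation of Luciferin-PPXE, 25 uM (its KM). NADPH-driven reaction ran 60 min at RT after 10 min compound preincubation; data scaled to 57 uM ketoconazole as 100% inhibition.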
# Tags tell the direction and shape of the fitted curve or compound fluorescence and quenching.
# Sequence of UniProt P11712 (P11712 whole entry, looked up): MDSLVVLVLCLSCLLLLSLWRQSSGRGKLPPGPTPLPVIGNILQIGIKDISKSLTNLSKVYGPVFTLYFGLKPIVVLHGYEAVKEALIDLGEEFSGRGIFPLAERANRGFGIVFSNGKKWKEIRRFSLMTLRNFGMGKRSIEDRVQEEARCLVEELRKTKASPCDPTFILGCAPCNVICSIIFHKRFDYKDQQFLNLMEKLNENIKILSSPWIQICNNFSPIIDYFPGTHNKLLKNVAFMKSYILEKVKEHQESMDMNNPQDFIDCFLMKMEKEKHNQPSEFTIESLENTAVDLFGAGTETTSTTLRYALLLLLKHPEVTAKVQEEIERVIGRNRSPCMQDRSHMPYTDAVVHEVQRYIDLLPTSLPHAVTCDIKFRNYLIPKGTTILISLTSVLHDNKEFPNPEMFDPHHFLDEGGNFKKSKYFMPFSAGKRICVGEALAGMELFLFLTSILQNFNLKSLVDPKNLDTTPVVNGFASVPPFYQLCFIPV
# Sequence of UniProt Q9HAZ1 (Q9HAZ1 whole entry, looked up): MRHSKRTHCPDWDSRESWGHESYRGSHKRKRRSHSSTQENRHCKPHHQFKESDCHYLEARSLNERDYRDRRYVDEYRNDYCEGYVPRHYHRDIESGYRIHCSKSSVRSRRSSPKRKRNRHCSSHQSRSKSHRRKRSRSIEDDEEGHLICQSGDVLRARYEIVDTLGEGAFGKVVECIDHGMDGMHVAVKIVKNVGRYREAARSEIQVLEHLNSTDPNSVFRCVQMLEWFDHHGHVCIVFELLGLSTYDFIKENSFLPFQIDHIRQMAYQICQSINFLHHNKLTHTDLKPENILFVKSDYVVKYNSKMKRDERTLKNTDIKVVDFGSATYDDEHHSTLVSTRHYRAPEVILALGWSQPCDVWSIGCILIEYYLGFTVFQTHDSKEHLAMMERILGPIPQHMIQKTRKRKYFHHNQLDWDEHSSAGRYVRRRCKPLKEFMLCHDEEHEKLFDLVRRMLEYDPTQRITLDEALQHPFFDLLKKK
# Sequence of UniProt Q07343 (Q07343 whole entry, looked up): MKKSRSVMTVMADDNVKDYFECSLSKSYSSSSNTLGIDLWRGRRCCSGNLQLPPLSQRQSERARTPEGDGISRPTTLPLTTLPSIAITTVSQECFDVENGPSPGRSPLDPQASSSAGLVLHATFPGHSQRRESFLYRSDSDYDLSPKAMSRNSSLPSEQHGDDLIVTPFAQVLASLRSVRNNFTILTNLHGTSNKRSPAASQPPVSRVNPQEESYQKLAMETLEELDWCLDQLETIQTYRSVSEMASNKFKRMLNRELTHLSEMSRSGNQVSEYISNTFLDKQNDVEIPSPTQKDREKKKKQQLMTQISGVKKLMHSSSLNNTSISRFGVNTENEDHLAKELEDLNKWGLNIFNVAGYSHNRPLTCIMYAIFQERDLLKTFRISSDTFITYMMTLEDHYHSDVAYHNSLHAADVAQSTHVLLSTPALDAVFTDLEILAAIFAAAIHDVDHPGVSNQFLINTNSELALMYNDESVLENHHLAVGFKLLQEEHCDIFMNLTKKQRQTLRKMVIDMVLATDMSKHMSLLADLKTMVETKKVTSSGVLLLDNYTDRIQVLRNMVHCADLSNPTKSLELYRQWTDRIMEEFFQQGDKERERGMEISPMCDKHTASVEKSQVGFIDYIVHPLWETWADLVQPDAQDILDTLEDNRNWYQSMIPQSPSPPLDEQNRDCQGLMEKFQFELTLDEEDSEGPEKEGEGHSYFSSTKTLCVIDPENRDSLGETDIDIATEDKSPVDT
# Sequence of UniProt O94782 (O94782 whole entry, looked up): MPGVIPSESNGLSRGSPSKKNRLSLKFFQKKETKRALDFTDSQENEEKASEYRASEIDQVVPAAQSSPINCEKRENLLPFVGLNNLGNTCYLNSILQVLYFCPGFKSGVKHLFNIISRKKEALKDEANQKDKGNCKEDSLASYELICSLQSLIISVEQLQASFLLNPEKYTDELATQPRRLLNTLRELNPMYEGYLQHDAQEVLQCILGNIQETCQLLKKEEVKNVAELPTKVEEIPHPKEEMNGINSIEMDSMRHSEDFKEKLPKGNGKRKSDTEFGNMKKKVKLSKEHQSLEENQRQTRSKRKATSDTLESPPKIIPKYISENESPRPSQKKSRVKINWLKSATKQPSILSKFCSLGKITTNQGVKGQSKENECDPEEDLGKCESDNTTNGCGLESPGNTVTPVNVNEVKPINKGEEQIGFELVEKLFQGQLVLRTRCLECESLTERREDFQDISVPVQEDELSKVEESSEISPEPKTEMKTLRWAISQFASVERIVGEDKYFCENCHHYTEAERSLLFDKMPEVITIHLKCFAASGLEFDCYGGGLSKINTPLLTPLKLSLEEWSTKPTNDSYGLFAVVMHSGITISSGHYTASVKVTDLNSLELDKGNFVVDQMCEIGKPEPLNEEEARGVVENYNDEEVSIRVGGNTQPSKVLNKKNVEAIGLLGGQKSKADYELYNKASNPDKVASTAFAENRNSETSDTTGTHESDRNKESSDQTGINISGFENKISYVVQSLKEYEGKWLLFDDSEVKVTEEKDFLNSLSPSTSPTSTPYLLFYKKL
# Sequence of UniProt P33261 (P33261 whole entry, looked up): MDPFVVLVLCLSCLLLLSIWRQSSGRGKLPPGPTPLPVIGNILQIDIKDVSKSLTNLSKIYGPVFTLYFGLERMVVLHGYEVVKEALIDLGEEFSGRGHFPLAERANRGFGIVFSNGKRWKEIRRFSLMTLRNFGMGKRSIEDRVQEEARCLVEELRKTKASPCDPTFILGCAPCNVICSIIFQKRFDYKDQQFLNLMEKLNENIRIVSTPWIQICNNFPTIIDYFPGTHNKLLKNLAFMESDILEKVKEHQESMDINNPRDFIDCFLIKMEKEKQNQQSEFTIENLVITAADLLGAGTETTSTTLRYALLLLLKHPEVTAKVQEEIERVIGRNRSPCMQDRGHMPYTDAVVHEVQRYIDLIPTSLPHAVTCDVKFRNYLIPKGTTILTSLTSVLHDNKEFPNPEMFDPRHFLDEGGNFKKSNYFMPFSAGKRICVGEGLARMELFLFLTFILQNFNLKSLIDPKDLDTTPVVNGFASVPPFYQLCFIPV
# Sequence of UniProt P08684 (P08684 whole entry, looked up): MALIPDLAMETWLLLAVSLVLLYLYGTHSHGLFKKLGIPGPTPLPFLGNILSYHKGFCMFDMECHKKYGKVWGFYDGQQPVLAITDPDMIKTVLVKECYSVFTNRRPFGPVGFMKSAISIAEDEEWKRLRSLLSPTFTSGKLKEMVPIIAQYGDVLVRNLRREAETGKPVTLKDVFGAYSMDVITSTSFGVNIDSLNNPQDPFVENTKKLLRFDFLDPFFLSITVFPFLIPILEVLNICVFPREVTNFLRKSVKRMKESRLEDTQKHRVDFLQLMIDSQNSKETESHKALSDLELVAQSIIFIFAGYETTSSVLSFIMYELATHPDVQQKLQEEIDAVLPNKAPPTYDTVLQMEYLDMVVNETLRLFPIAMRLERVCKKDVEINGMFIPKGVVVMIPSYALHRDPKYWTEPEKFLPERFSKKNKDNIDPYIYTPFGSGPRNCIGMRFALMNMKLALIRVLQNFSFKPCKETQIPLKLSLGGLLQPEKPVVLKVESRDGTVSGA
smiles,measurement,setting,value
CC(=O)NCCNc1cc(-c2ccccc2C(F)(F)F)ncn1,Potency,[1],inactive
same,Potency,[2],inactive
O=c1c(-c2cc(F)cc(F)c2)nc2cnc(Nc3ccccc3)nc2n1C[C@H]1CCCO1,activation,[3],inactive: -17%
same,Potency,[1],inactive
c1ccc(CNc2nc(-c3ccc4c(c3)OCO4)nc3ccccc23)cc1,"activity change, negative = inhibition",[4],inactive: -23.9% [at 7.69 µM]
same,Potency,[5],"inconclusive: 10 µM [activator, partial curve]"
same,Potency,[3],"inconclusive: 3.98 µM [inhibitor, single point]"
same,Potency,[1],inactive
Cc1cnc(CNc2nc(-c3ccccc3C)nc3ccccc23)cn1,"activity, negative = inhibition",[6],inactive: -5.75%
same,Potency,[1],"inconclusive: 31.6 µM [falling, partial curve]"
CN(C)Cc1ccccc1-c1cncnc1Nc1ccccc1,"activity change, negative = inhibition",[4],inconclusive: -57.2% [inhibitor] [at 7.69 µM]
same,Potency,[5],inactive
same,Potency,[1],inactive
CN(C)c1ncc2nc(-c3ccc(Cl)cc3)c(=O)n(CCC#N)c2n1,Potency,[3],"inconclusive: 5.01 µM [activator, single point]"
same,Potency,[1],inactive
Cc1noc(C)c1-c1nc(Nc2ccc(F)cc2)c2ccccc2n1,Potency,[5],"inconclusive: 3.16 µM [activator, partial curve]"
same,Potency,[1],inactive
CNc1cc(-c2ccccc2CN(C)C)ncn1,Potency,[7],inactive
N#CCCn1c(=O)c(-c2cccc(C#N)c2)nc2cnc(N3CCOCC3)nc21,Potency,[5],inactive
same,Potency,[1],inactive
Cc1cnc(CNc2ncncc2-c2c(C)noc2C)cn1,Potency,[7],inactive
O=c1c(-c2ccc(F)cc2)nc2cncnc2n1Cc1ccc(F)cc1,Potency,[3],"inconclusive: 6.31 µM [inhibitor, single point]"
same,Potency,[1],inactive
same,Potency,[2],inactive
COc1cccc(Cn2c(=O)c(-c3cccs3)nc3cnc(N4CCOCC4)nc32)c1,"activity, negative = inhibition",[6],inconclusive: 32.7% [activator]
same,Potency,[8],"inconclusive: 5.01 µM [activator, partial curve]"
same,Potency,[3],"inconclusive: 3.98 µM [activator, single point]"
same,Potency,[1],inactive
COc1ccccc1-c1cc(NCc2cccs2)ncn1,"activity, negative = inhibition",[6],inactive: -5.58%
same,Potency,[1],active: 14.1 µM
CC(=O)NCCNc1ncnc2ccc(-c3ccccc3C(F)(F)F)cc12,"activity, negative = inhibition",[6],inconclusive: -4.63% [inhibitor]
same,Potency,[5],"inconclusive: 7.94 µM [activator, partial curve]"
same,activation,[3],inconclusive: 30.9%
same,Potency,[1],"inconclusive: 22.4 µM [falling, partial curve]"
c1csc(CNc2cc(-c3ccoc3)ncn2)c1,Potency,[5],inactive
same,Potency,[1],"inconclusive: 35.5 µM [falling, single point]"
O=c1c(CCc2ccccc2)nc2cnc(N3CCOCC3)nc2n1Cc1cccs1,Potency,[5],"inconclusive: 6.31 µM [activator, partial curve]"
same,Potency,[9],"inconclusive: 3.16 µM [inhibitor, full curve, poor fit]"
same,Potency,[1],inactive
COc1ccc2[nH]cc(CCNc3ccnc(-c4c(C)noc4C)n3)c2c1,Potency,[9],"inconclusive: 0.794 µM [inhibitor, partial curve]"
same,Potency,[1],"inconclusive: 22.4 µM [falling, single point]"
COc1ccc(-c2nc3cnc(N4CCOCC4)nc3n(C)c2=O)cc1,Potency,[8],inactive
same,Potency,[1],inactive
same,Potency,[2],inactive
COCCn1c(=O)cnc2cnc(N3CCOCC3)nc21,"activity, negative = inhibition",[6],inactive: -12.6%
same,activation,[3],inactive: -5.07%
same,Potency,[1],inactive
c1cncc(-c2nccc(NCc3cccs3)n2)c1,Potency,[8],inactive
same,Potency,[5],"inconclusive: 10 µM [activator, partial curve]"
same,Potency,[9],active: 0.398 µM
same,Potency,[10],active: 7.94 µM
same,Potency,[1],active: 14.1 µM
CN(C)C(=O)c1ccc(-c2cc(-n3ccnc3)ncn2)cc1,Potency,[8],inactive
same,Potency,[5],inactive
same,Potency,[1],active: 11.2 µM
O=c1c(-c2cc(F)cc(F)c2)nc2cncnc2n1Cc1ccccc1,Potency,[8],"inconclusive: 3.16 µM [inhibitor, single point]"
same,Potency,[5],"inconclusive: 12.6 µM [activator, partial curve]"
same,Potency,[1],inactive
CS(=O)(=O)Nc1cccc(-c2cncnc2NCc2ccccc2)c1,Potency,[5],"inconclusive: 3.98 µM [activator, partial curve]"
same,activation,[3],inconclusive: 1.3%
same,Potency,[1],inactive
Cn1c(=O)c(-c2ccccc2)nc2cncnc21,Potency,[7],"inconclusive: 25.1 µM [falling, single point]"
Cc1cnc(CNc2ccnc(-c3ccccc3C)n2)cn1,Potency,[7],inactive
Cc1cnc(CNc2ncncc2-c2ccc(N(C)C)cc2)cn1,Potency,[11],active: 2 µM
same,Potency,[1],"inconclusive: 14.1 µM [falling, partial curve]"
COc1ccc(-c2nc3cncnc3n(-c3ccccc3)c2=O)cc1,Potency,[5],"inconclusive: 7.94 µM [activator, partial curve]"
same,Potency,[1],inactive
Cc1nc2cnc(N(C)C)nc2n(CCc2ccccc2)c1=O,"activity, negative = inhibition",[6],inconclusive: -8.35% [inhibitor]
same,Potency,[5],"inconclusive: 12.6 µM [activator, partial curve]"
same,Potency,[10],active: 0.631 µM
same,activation,[3],inactive: -12%
same,Potency,[1],"inconclusive: 31.6 µM [falling, single point]"
